# Hit rate of the full screen: of about 50,000 compounds, about 800 (1.6%) showed an effect of 50% or more. This is one part of the list.
# Target: Bcl-2-like protein 10 (Homo sapiens) (UniProt Q9HD36)
# Test: Phenotype converters, Bcl-B/TR3 peptide binding displacement, primary biochemical FP (AID 1240);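 note: 0% = Bcl-B with tracer peptide and DMSO and 100% = tracer peptide lacking Bcl-B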
# Conditions: GST-Bcl-B / FITC-TR3 peptide fluorescence polarization; stronger effect = higher value; compound at 3.75 mg/L
# Chain of UniProt Q9HD36 (Q9HD36 whole entry, looked up): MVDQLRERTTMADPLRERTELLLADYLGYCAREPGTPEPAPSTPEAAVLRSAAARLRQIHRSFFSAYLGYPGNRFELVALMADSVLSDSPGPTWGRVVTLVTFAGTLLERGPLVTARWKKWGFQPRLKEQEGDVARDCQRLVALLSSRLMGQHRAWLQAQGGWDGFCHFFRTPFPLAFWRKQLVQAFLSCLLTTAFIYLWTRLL
row,Structure (SMILES),displacement
1,CCC(=O)N1CCN(c2cc(N3CCCCC3)c(F)cc2[N+](=O)[O-])CC1,-5.8%
2,CC(C)(C)NC(=O)c1nn2c(C(F)(F)F)cc(-c3ccccc3)nc2c1Br,13%
3,COc1ccccc1NC(=O)CCCC(=O)OCC(F)(F)C(F)F,1%
4,CCN(Cc1ccccc1)C(=O)c1ccc(SC)cc1OC,-7.7%
5,CC12CCCCC1C2C(=O)N/N=C\c1ccc(Cl)cc1Cl (configuration not stated),19.4%
6,COc1cc(Cl)cc(/C=C2/C(=O)NC(=O)N(c3ccc(C)cc3)C2=O)c1O,-12.7%
7,CCCCOc1ccc(NC(=O)CSc2nnnn2-c2ccccc2)cc1,11.6%
8,Cc1cc(Cl)ccc1NC(=O)c1cccc([N+](=O)[O-])c1C,-4.1%
9,Cc1ccc2oc(-c3cc(N)ccc3Cl)nc2c1,-3%
10,Cc1cccc(C(=O)Nc2cc(C)on2)c1,-1.2%
11,Cc1noc([N+](=O)[O-])c1C=Cc1c(C)nn(-c2ccccc2)c1C,-4.6%
12,Cc1ccc(-c2noc(-c3cccc([N+](=O)[O-])c3C)n2)cc1,6.9%
13,CCCc1ccc(-c2nc(-c3cc(OC)c(OC)c(OC)c3)no2)cc1,-7%
14,Cc1cccc(C)c1NC(=O)CC(C)c1ccccc1 (configuration not stated),5.5%
15,CCc1ccc(N2CC(C(=O)Nc3cccc(C(F)(F)F)c3)CC2=O)cc1 (configuration not stated),5.6%
16,CCOC(=O)c1sc(NC(=O)COc2cc(Cl)ccc2Cl)c(C(=O)OCC)c1C,0.4%
17,CSc1ccc(/C=N/NC(=O)COc2ccccc2C)cc1,12.6%
18,CCN(CC)C(=O)c1sc(NC(=O)CCCOc2ccc(Cl)cc2C)c(C(=O)OC)c1C,4%
19,COC(=O)C(C(=O)OC)C(=O)c1ccc(C)cc1,-13.8%
20,Nc1nnc(/C=C/c2ccccc2)s1,6.2%
21,CCSc1nnc(NC(=O)c2ccc(Br)cc2)s1,-6.2%
22,O=S(Cc1ccc(Cl)cc1)CC(O)COc1ccccc1 (configuration not stated),0.3%
23,O=C(O)CC1S/C(=N/N=C/c2cccc(O)c2)NC1=O (configuration not stated),-34.7%

row,Structure (SMILES),displacement
1,COc1ccc(C2c3c(-c4ccccc4)n[nH]c3C(=O)N2c2ccccc2)cc1 (configuration not stated),-3.9%
2,O=S(=O)([O-])CCC[n+]1cnc2ncc3c(n21)/C(=C/c1ccccc1)CCC3,-3.8%
3,O=C(Nc1ccccc1C(=O)Nc1ccc(Br)cn1)c1ccccc1,-7.9%
4,CC1(C)Cc2c(sc3nc(SCCc4ccccc4)n(CCc4ccccc4)c(=O)c23)CO1,-2.5%
5,COc1ccccc1OCCn1cc(/C=C2/SC(=S)N(Cc3ccccc3)C2=O)c2ccccc21,112%
6,C=C(C)C1CC=C(C)/C(=N/NC(N)=O)C1 (configuration not stated),-7.9%
7,Cc1cc(Cl)ccc1OCC(=O)N1CCN(c2ccccn2)CC1,-8.1%
8,CC1=C(C(=O)OCCC#N)C(c2cccc(Oc3ccccc3)c2)NC(=O)N1 (configuration not stated),-0.1%
9,Cc1ccc(N2C(=O)CC(Sc3nc4ccccc4s3)C2=O)cc1Cl (configuration not stated),-5.3%
10,COc1ccc(C(=O)Nc2nnc(Cc3ccccc3)s2)cc1OC,1.2%
11,Cc1ccc(C)c(C(=O)CN2C3=NCCN3c3ccccc32)c1,-3.3%
12,COCCNC(=O)c1ccccc1[N+](=O)[O-],11.6%
13,COC(=O)c1cccc(Nc2ncnc3ccc(Br)cc23)c1,-9.9%
14,COc1cccc(NCCC(=O)c2cccc([N+](=O)[O-])c2)c1,8%
15,COc1ccc(CCNC(=O)CN(c2ccc(C)cc2)S(=O)(=O)c2ccc(F)cc2)cc1OC,-6.1%
16,COC(=O)c1c(NC(=O)CCCOc2ccccc2)sc2c1C(C(=O)OC)CC2 (configuration not stated),-1.2%
17,O=S(=O)(O)c1nc2ccccc2n1-c1ccccc1,-9.1%
18,CCOc1ccc(C2=C/C(=C/c3ccc(C)o3)C(=O)O2)cc1,10.2%
19,COc1ccc(C2Nc3cccc4cccc(c34)N2)cc1Br,13%
20,O=C(CCN1C(=O)/C(=C/c2ccc(F)cc2)SC1=S)Nc1ncc(Cc2ccc(Cl)cc2)s1,10.3%
21,C=CCc1cccc(/C=N/NC(=O)c2cc(C(C)(C)C)[nH]n2)c1O,-19.8%
22,O=[N+]([O-])c1ccc(N/C(=N/S(=O)(=O)c2ccccc2)c2ccccc2)cc1,10.8%
23,N#C/C(=C/C=C/c1ccccc1)c1nc(-c2cc3c(ccc4ccccc43)oc2=O)cs1,-7.3%

row,Structure (SMILES),displacement
1,Cc1cc(OCC(=O)NNC(=O)c2cccc(Cl)c2)ccc1Br,-13.4%
2,COc1cccc2cc(C(=O)Nc3ccc(S(N)(=O)=O)cc3)c(=O)oc12,-8%
3,O=C(N=Nc1c(O)n(CN2CCOCC2)c2ccccc12)c1ccccc1Cl,-3.7%
4,Cc1cc(C)nc(/N=C(\N)Nc2cc(C(F)(F)F)ccc2Cl)n1,7.1%
5,COCCNC(=O)c1ccc(Cl)c([N+](=O)[O-])c1,2.8%
6,Cc1[nH]nc(N2CCCCC2)c1[N+](=O)[O-],2.6%
7,CCOC(=O)C1=C(C)N=c2s/c(=C\c3ccc(NC(C)=O)cc3)c(=O)n2C1c1ccc(OC)cc1 (configuration not stated),116%
8,Cc1cc2nc(SCc3ccccc3Cl)[nH]c2cc1C,3.4%
9,CCC(CO)N=Cc1ccc(Cl)cc1 (configuration not stated),11.2%
10,CNC(=O)CCC(=O)Nc1ccc(C)cc1C,12.8%
11,CN1C(=O)NC(=O)/C(=C/c2cc(Cl)ccc2O)C1=O,-16.6%
12,O=C1c2ccccc2C(=O)N1c1ncc(Cc2ccc(Br)cc2)s1,-1%
13,CCOc1ccc(NC(=O)c2ccc(S(=O)(=O)N(CC)CC)cc2)c([N+](=O)[O-])c1,4%
14,COc1ccc(NC(=O)Cc2ccc(Br)cc2)cc1,-3.1%
15,Cc1ccc(S(=O)(=O)N2CCN(C(=O)COc3ccc(Cl)cc3)CC2)cc1,-15.1%
16,O=C1CCCc2oc3ccc(NS(=O)(=O)c4ccc(F)cc4)cc3c21,0.3%
17,COc1ccc(C(=O)Nc2ccc(NC(=O)c3ccc(Br)cc3)cc2)cc1,-1.2%
18,COc1ccc(/C=C2\C=C(c3ccc(Br)cc3)OC2=O)cc1[N+](=O)[O-],70%
19,C=CCN1C(=O)/C(=C\c2cc(Br)ccc2OCC)C(=O)NC1=S,-11.2%
20,COc1cccc(OCC(=O)Nc2ccc3c(c2)OCCO3)c1,10.9%
21,O=c1cc(=O)n(-c2ccccc2)c2ccccc12,-0.3%
22,COc1ccccc1CC(=O)n1nnc2ccccc21,-5.7%
23,COc1ccc(NC(=O)c2ccc(CN3CCN(Cc4ccccc4)CC3)cc2)cc1OC,27%

row,Structure (SMILES),displacement
1,CC(=O)N(C1=C(Nc2ccccc2)C(=O)c2ccccc2C1=O)c1ccccc1,2.3%
2,O=C(OCCN1CCOCC1)c1ccc(O)cc1O,7.5%
3,COc1ccc(C(=O)N/C(=C/c2ccc(-c3cc(Cl)ccc3Cl)o2)C(=O)NCCCO)cc1,8.5%
4,CCc1cccc(C)c1NC(=O)CSc1nnnn1-c1ccccc1,-10.6%
5,O=C(Cn1c(C(F)(F)F)nc2ccccc21)c1ccc(Cl)cc1,11.4%
6,CC(C)Oc1ccc(C(=O)Nc2nc3ccccc3s2)cc1,-14.6%
7,Cc1ccc(NC(=O)c2ccco2)c(C)c1,-9.1%
8,C/C(=N\NC(=O)c1cc(-c2ccccc2)n[nH]1)c1ccc(Br)cc1,-4.7%
9,COc1ccc(/C=N/Nc2nc3cc(C)ccc3cc2C)cc1OC,-9.9%
10,COC(=O)c1cc(C(=O)Nc2ccc(C(C)=O)cc2)cc([N+](=O)[O-])c1,15.4%
11,CCOC(=O)CC(=O)c1sc2nccc(N(C)C)c2c1N,4.6%
12,Cc1ccc(OCC(=O)NCc2ccc(Cl)cc2)c(Br)c1,-4.5%
13,CCC(C)NC(=O)CN(c1ccccc1OC)S(=O)(=O)c1ccccc1 (configuration not stated),-1.7%
14,CCOCCOC(=O)c1ccc(NC(=O)Nc2ccc(Cl)cc2)cc1,-4%
15,CC(=O)c1cccc(NC(=O)c2ccc(-c3cc(Cl)ccc3Cl)o2)c1,-8.8%
16,COc1cc(C2N(Cc3ccccc3)CCN2Cc2ccccc2)ccc1O,5%
17,CCOC(=O)/C=C/COc1ccc2oc(C)c(C(=O)OC)c2c1,3.9%
18,O=C(N/N=C/c1ccc(O)cc1)C(O)C(O)C(=O)N/N=C/c1ccc(O)cc1 (configuration not stated),-1%
19,c1ccc(CSc2nc3ccccc3s2)nc1,-4.3%
20,CCOc1ccc(Nc2ccc3noc4c3c2C(=O)c2ccccc2-4)cc1,-2%
21,CCCCOc1ccc(C(=O)N2CCCc3ccccc32)cc1,0.7%
22,O=C(O)C1CCCCN1C(=O)c1ccccc1 (configuration not stated),-8%
23,CC(Oc1cccc(Cl)c1)C(=O)Nc1ccc(C(N)=O)cc1 (configuration not stated),21.6%

row,Structure (SMILES),displacement
1,CCOC(=O)c1ccccc1NC(=O)CCC1CCCC1,3.3%
2,O=C(Nc1cccc(Cl)c1)/C(=C/c1cccnc1)NC(=O)c1cccc(Br)c1,-5.6%
3,O=C(c1cccc(F)c1)N1CCN(Cc2cccc(F)c2)CC1,-19.6%
4,O=C(NCc1cccs1)c1cnn2c1NC(c1ccc(Br)cc1)CC2C(F)(F)F (configuration not stated),0.1%
5,COc1ccc(C2=C/C(=C/c3ccco3)C(=O)O2)cc1,40.1%
6,COc1ccc(-c2cc(C(F)(F)F)n3ncc(C(=O)NCc4ccco4)c3n2)cc1,30.7%
7,COc1ccc(/C=C2\C(=O)NC(=O)N(c3cc(C)cc(C)c3)C2=O)cc1,5.9%
8,CC[N+]1=C(/C=C/Nc2ccccc2)SCC1,-0.3%
9,COc1cc(NC(=O)c2cccc(Br)c2)ccc1NC(=O)c1cc2ccccc2o1,3.2%
10,CCN(CC)c1ccc(Nc2nc(-c3sc(C)nc3C)cs2)cc1,13.3%
11,Cc1cc(=O)[nH]c(Sc2nnc(-c3ccccc3)c3ccccc23)n1,-5.4%
12,Oc1c(C=Nc2cccc3nsnc23)sc2ccccc12,-12.3%
13,COc1ccc(-c2cc(C(=O)Nc3ccc(Br)cc3)c3ccccc3n2)c(OC)c1,-8.9%
14,O=C(Nc1ccccc1C(=O)Nc1ccc(Br)cn1)c1ccccc1Cl,-14%
15,CCCOC(=O)C1=C(C)NC(=O)NC1c1ccccc1Cl (configuration not stated),6.4%
16,O=S(=O)(c1ccc2c(c1)OCCO2)N1CCCCC1,-13.4%
17,COc1cc(OC)c(OC)cc1/C=N/NC(=O)c1cccnc1,-0.8%
18,CCOc1ccc(N(CC(=O)NCCSc2ccccc2)S(C)(=O)=O)cc1,11.4%
19,O=C(Nc1ccc(/C=C/c2ccccc2)cc1)c1ccc(F)cc1,12.9%
20,COc1ccc(C(=O)N2CCN(Cc3cccnc3)CC2)cc1OC,-20.8%

# From PubChem BioAssay AID1240 (Sanford-Burnham Center for Chemical Genomics, 2008)
